In all, about 310,000 compounds went through this assay and about 2,200 (0.71%) showed an effect of 50% or more. The effect is printed as a negative number. Some of the results follow.
The compounds below were run against human ether-à-go-go-related gene (hERG) potassium channel (human, UniProt Q12809) (assay: primary screen, population patch clamp on CHO cells stably expressing hERG).
Chain of human ether-à-go-go-related gene (hERG) potassium channel (Q12809 whole entry, looked up): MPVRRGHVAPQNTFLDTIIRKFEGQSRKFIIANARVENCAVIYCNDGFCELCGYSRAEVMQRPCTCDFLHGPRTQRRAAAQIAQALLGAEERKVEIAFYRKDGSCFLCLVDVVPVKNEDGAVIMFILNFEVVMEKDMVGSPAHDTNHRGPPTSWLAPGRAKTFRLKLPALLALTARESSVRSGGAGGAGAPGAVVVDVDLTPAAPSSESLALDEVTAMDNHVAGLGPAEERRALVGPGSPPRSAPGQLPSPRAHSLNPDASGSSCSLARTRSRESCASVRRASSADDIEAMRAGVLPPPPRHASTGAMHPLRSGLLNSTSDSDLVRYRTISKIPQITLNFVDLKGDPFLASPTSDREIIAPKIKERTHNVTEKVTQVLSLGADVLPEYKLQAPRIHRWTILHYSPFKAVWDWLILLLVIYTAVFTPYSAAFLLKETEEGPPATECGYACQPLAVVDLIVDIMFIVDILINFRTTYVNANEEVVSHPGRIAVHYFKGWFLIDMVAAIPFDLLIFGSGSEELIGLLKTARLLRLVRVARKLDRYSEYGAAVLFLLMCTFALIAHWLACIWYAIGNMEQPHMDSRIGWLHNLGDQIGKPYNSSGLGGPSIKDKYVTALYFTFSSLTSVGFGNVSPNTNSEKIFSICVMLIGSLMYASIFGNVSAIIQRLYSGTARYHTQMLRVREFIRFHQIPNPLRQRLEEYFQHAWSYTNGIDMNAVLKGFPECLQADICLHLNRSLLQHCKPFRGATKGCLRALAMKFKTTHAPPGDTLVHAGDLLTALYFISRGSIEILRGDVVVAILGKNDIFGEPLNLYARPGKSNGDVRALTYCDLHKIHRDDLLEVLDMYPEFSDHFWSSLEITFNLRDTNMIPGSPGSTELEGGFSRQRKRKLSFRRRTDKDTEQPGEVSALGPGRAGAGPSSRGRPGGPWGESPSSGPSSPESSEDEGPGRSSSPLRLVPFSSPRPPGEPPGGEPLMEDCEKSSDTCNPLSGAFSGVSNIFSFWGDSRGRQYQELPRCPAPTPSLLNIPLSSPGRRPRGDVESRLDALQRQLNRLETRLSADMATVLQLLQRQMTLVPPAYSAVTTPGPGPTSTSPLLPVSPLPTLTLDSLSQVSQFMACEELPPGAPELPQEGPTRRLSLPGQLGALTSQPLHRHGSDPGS

Row | SMILES | hERG current change (%, negative = inhibition) at 1uM
1 | O=C(NNc1c(Cl)cc(Cl)cc1Cl)c1cccc([N+](=O)[O-])c1 | 14.7%
2 | O=C(Nc1ccc(S(=O)(=O)N2CCOCC2)cc1)C1CCN(S(=O)(=O)c2ccccc2)CC1 | 1.78%
3 | O=C(COc1ccc(S(=O)(=O)N2CCOCC2)cc1)NC1CC1 | 17.6%
4 | COc1ccc(Cl)cc1C(=O)Nc1ccc2c(c1)OCO2 | 5.64%
5 | N#Cc1ccccc1OCCN1C(=O)c2ccccc2C1=O | 8.99%
6 | Cc1cc2c3c(ccc(C)c3n1)N=CN2c1ccccc1 | -10.8%
7 | CCCSc1nnc(Nc2ccccc2C)s1 | -2.76%
8 | CCc1ccccc1NC(=O)c1ccc(NS(C)(=O)=O)cc1 | -10.5%
9 | COc1ccc(C(=O)N2N=C(c3cccc(NS(C)(=O)=O)c3)CC2c2cccs2)cc1 (stereo not shown) | -22.1%
10 | CCOC(=O)Cn1c(=NC(=O)c2cc(-c3cccs3)nc3ccccc23)sc2cc(S(N)(=O)=O)ccc21 | 17.1%
11 | COc1ccc(NC(=O)CN(c2ccccc2)S(=O)(=O)c2ccccc2)c(OC)c1 | 3.74%
12 | CCOc1ccccc1N(C)C(=O)CCS(=O)(=O)c1ccc2c(c1)NC(=O)C(C)S2 (stereo not shown) | 6.44%
13 | CN(C)CCNC(=O)c1cc2c(s1)-c1ccc(Cl)cc1SC2 | -19.8%
14 | C=CCn1c(=O)c2ccccc2n2c(SCc3csc(-c4ccccc4)n3)nnc12 | -1.51%
15 | CCOC(=O)C1CCN(C(=O)CCCn2nc(C)c3c(C)n(-c4ccc(C)cc4)nc3c2=O)CC1 | 2.54%
16 | CC(=O)c1ccc(NC(=O)c2ccc(CNc3c(N4CCOCC4)c(=O)c3=O)cc2)cc1 | 5.01%
17 | Cc1ccc(Cl)cc1NC(=O)c1cccc(OC(F)F)c1 | 8.47%
18 | CCc1ccc2oc(C(=O)N3CCN(C)CC3)cc(=O)c2c1 | -17.8%
19 | CC(C)NC(=O)Cn1cc(C#N)c2cc(Br)ccc21 | 7.96%
20 | CC(=NCCCN1CCOCC1)c1c(O)n(-c2ccccc2C)c(=O)[nH]c1=O | 8.16%
21 | CCOc1ccc(N(CC(=O)Nc2ccc(C)c(Cl)c2)S(C)(=O)=O)cc1 | 10.4%
22 | CC(C)OC(=O)c1cccc(C(=O)Oc2ccc(Br)cc2)n1 | -1.27%

Row | SMILES | hERG current change (%, negative = inhibition) at 1uM
23 | CS(=O)(=O)N(CC(=O)N/N=C/c1ccc(OCC(=O)N2CCOCC2)cc1)c1ccccc1Cl | 1.46%
24 | CC(C)SCc1cc(N2CCCC2)nc(-c2ccccc2)n1 | 10.6%
25 | COCC1CCN(Cc2cn[nH]c2-c2cc(OC)c(OC)c(OC)c2)CC1 | -1.36%
26 | O=C(O)c1cc([N+](=O)[O-])c(NCCC2=CCCCC2)c([N+](=O)[O-])c1 | 11.1%
27 | CCN(CC)C(=S)SCC(=O)Nc1cccc(C(F)(F)F)c1 | 7.53%
28 | CCCCN(CC)C(=O)CSc1cc(=O)n(C)c2ccccc12 | 3.56%
29 | CCSc1nccc(-c2nn(-c3ccc(C)cc3)ccc2=O)n1 | 5.36%
30 | CC1=C/C(=C\C=C(C#N)C#N)N(C)c2ccccc21 | 11.8%
31 | COc1ccc(CCNc2nc3ccccc3n3cnnc23)cc1OC | 10.7%
32 | CCOC(=O)N1CCN(C(=O)C2CCN(S(=O)(=O)c3ccccc3)CC2)CC1 | -2.91%
33 | Cc1ccc(CS/C(Nc2ccccc2C)=C(\C#N)C(=O)NCc2ccco2)c(C)c1 | 6.63%
34 | CCn1c2ccccc2c2cc(NC(=O)COC(=O)C3CCC(=O)N3)ccc21 (stereo not shown) | 2.48%
35 | CCn1nnc2cc(C(=O)Nc3cccc(S(=O)(=O)N(C)C)c3)ccc21 | 7.54%
36 | CCCCCCSc1ccc([C@H]2N[C@@](Cc3ccccc3)(C(=O)OC)[C@H]3C(=O)N(CC)C(=O)[C@@H]23)cc1.O=C(O)C(F)(F)F | 1.76%
37 | Cc1ccccc1OCC(=O)N1CCN(C(=O)COc2ccccc2C)CC1 | 10.5%
38 | Nc1nc(NC(=O)CCC(=O)O)nn1-c1ccccc1 | 12.5%
39 | C/C(=N\NC(=O)c1cccc([N+](=O)[O-])c1)c1cccnc1 | 10.9%
40 | O=C(CCc1nnc2n(Cc3ccc(F)cc3)c(=O)c3ccccc3n12)NCCN1CCOCC1 | 6.1%
41 | CCCCNc1cc(Cl)nc(N)n1 | 14.4%
42 | Cc1ccc2c(c1)[nH]c1c(=O)n(Cc3ccccn3)cnc12 | 15.1%
43 | NC(N)=N/N=C/c1ccc(Cl)c(Cl)c1 | 1.47%
